Test results as given in patent publication US7517874B2 (priority 2007, dated 2009).
Where two headings read alike, the source gives them in different places.

Molecular target: human CB2 receptor (hCB2) (Homo sapiens, UniProt P34972)
Assay: cell-based
Assay type: cell-based
Settings: for +/− HCB2: agonist or inverse agonist at hCB2
[1] = groups >100 nM-10 μM and >10 μM, cAMP, CHO-K1 hCB2, read-out: EC50 HCB2

Sequence of human CB2 receptor (hCB2) (P34972 whole entry): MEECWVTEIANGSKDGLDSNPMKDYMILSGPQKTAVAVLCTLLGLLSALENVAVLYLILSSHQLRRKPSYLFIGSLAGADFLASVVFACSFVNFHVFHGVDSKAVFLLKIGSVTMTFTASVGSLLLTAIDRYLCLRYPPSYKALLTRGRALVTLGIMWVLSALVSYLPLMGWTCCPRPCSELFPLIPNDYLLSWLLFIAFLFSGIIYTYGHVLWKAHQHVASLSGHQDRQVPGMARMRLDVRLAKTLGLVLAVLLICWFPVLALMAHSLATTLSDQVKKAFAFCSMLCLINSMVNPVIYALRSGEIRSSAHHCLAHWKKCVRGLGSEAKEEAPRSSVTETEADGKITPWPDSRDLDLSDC

SMILES	+/− HCB2	also measured
CNC(=O)[C@@H](NC(=O)c1nc(C(C)C)n2c1CN(C)CCC2)C(C)(C)C [Compound 496, (S)-N-(3,3-dimethyl-1-(methylamino)-1-oxobutan-2-yl)-3-isopropyl-8-methyl-6,7,8,9-tetrahydro-5H-imidazo[1,5-a][1,4]diazepine-1-carboxamide]	+	
CNC(=O)[C@@H](NC(=O)c1nc(-c2ccc(Cl)cc2F)n2c1CN(CC(C)C)CCC2)C(C)(C)C [Compound 322, (S)-3-(4-chloro-2-fluorophenyl)-N-(3,3-dimethyl-1-(methylamino)-1-oxobutan-2-yl)-8-isobutyl-6,7,8,9-tetrahydro-5H-imidazo[1,5-a][1,4]diazepine-1-carboxamide]		EC50: > 10000 nM
O=C(Nc1ccccc1)c1nc(-c2ccccc2)n2c1CNCC2 [Compound 41, N,3-diphenyl-5,6,7,8-tetrahydroimidazo[1,5-a]pyrazine-1-carboxamide]		EC50 [1]: > 10000 nM
CNC(=O)[C@@H](NC(=O)c1nc(-c2ccc(C)cc2Cl)n2c1CN(C)CCC2)C(C)(C)C [Compound 367, (S)-3-(2-chloro-4-methylphenyl)-N-(3,3-dimethyl-1-(methylamino)-1-oxobutan-2-yl)-8-methyl-6,7,8,9-tetrahydro-5H-imidazo[1,5-a][1,4]diazepine-1-carboxamide]	+	
CNC(=O)[C@@H](NC(=O)c1nc(-c2cccc(N(C)C)c2)n2c1CN(C)CCC2)C(C)(C)C [Compound 382, (S)-N-(3,3-dimethyl-1-(methylamino)-1-oxobutan-2-yl)-3-(3-(dimethylamino)phenyl)-8-methyl-6,7,8,9-tetrahydro-5H-imidazo[1,5-a][1,4]diazepine-1-carboxamide]		EC50: > 10000 nM
COC(=O)[C@@H](NC(=O)c1nc(-c2ccc(C)cc2F)n2c1CN(C)CCC2)C(C)(C)C [Compound 469, (S)-methyl 2-(3-(2-fluoro-4-methylphenyl)-8-methyl-6,7,8,9-tetrahydro-5H-imidazo[1,5-a][1,4]diazepine-1-carboxamido)-3,3-dimethylbutanoate]	+	
CNC(=O)[C@@H](NC(=O)c1nc(-c2ccccc2)n2c1CN(C(=O)C(C)(C)C)CC2)C(C)(C)C [Compound 190, (S)-N-(3,3-dimethyl-1-(methylamino)-1-oxobutan-2-yl)-3-phenyl-7-pivaloyl-5,6,7,8-tetrahydroimidazo[1,5-a]pyrazine-1-carboxamide]	−	
CC(C)C[C@H](NC(=O)c1nc(-c2ccc(F)cc2)n2c1CN(C)CCC2)C(N)=O [Compound 565, (S)-N-(1-amino-4-methyl-1-oxopentan-2-yl)-3-(4-fluorophenyl)-8-methyl-6,7,8,9-tetrahydro-5H-imidazo[1,5-a][1,4]diazepine-1-carboxamide]	+	
CNC(=O)[C@@H](NC(=O)c1nc(-c2cncnc2)n2c1CN(C)CC2)C(C)(C)C [Compound 239, (S)-N-(3,3-dimethyl-1-(methylamino)-1-oxobutan-2-yl)-7-methyl-3-(pyrimidin-5-yl)-5,6,7,8-tetrahydroimidazo[1,5-a]pyrazine-1-carboxamide]	+	
CNC(=O)[C@@H](NC(=O)c1nc(-c2ccccc2)n2c1CN(S(=O)(=O)C1CC1)CC2)C(C)(C)C [Compound 100, (S)-7-(cyclopropylsulfonyl)-N-(3,3-dimethyl-1-(methylamino)-1-oxobutan-2-yl)-3-phenyl-5,6,7,8-tetrahydroimidazo[1,5-a]pyrazine-1-carboxamide]		EC50: > 10000 nM
CNC(=O)[C@@H](NC(=O)c1nc(C2CCC(C)CC2)n2c1CN(C)CCC2)C(C)(C)C (stereo partly drawn) [Compound 499, (S)-N-(3,3-dimethyl-1-(methylamino)-1-oxobutan-2-yl)-8-methyl-3-(4-methylcyclohexyl)-6,7,8,9-tetrahydro-5H-imidazo[1,5-a][1,4]diazepine-1-carboxamide]	+	
C[C@@H](NC(=O)c1nc(-c2ccccc2)n2c1CN(C(=O)C1CCOC1)CC2)C1CCCCC1 (stereo partly drawn) [Compound 139, N-((R)-1-cyclohexylethyl)-3-phenyl-7-(tetrahydrofuran-3-carbonyl)-5,6,7,8-tetrahydroimidazo[1,5-a]pyrazine-1-carboxamide]		EC50: > 10000 nM
COC(=O)N1CCn2c(-c3ccc(Cl)cc3)nc(C(=O)NCCC(C)C)c2C1 [Compound 183, methyl 3-(4-chlorophenyl)-1-(isopentylcarbamoyl)-5,6-dihydroimidazo[1,5-a]pyrazine-7(8H)-carboxylate]	−	
CNC(=O)[C@@H](NC(=O)c1nc(-c2cc(C(N)=O)ccc2F)n2c1CN(C)CCC2)C(C)(C)C [Compound 405, (S)-3-(5-carbamoyl-2-fluorophenyl)-N-(3,3-dimethyl-1-(methylamino)-1-oxobutan-2-yl)-8-methyl-6,7,8,9-tetrahydro-5H-imidazo[1,5-a][1,4]diazepine-1-carboxamide]		EC50 [1]: > 10000 nM
CC(=O)N1CCn2c(-c3ccccc3)nc(C(=O)NC3CCCCC3)c2C1 [Compound 177, 7-acetyl-N-cyclohexyl-3-phenyl-5,6,7,8-tetrahydroimidazo[1,5-a]pyrazine-1-carboxamide]	+	
CNC(=O)[C@@H](NC(=O)c1nc(C2CCC(F)(F)CC2)n2c1CN(C)CCC2)C(C)(C)C [Compound 528, (S)-3-(4,4-difluorocyclohexyl)-N-(3,3-dimethyl-1-(methylamino)-1-oxobutan-2-yl)-8-methyl-6,7,8,9-tetrahydro-5H-imidazo[1,5-a][1,4]diazepine-1-carboxamide]	+	
O=C(NCC1CCOCC1)c1nc(-c2ccccc2)n2c1CN(C(=O)C1CCOC1)CC2 (stereo not drawn) [Compound 135, 3-phenl-N-((tetrahydro-2H-pyran-4-yl)methyl)-7-(tetrahydrofuran-3-carbonyl)-5,6,7,8-tetrahydroimidazo[1,5-a]pyrazine-1-carboxamide]		EC50 [1]: > 10000 nM
CNC(=O)[C@@H](NC(=O)c1nc(C(=O)c2ccccc2)n2c1CN(C)CC2)C(C)(C)C [Compound 289, (S)-3-benzoyl-N-(3,3-dimethyl-1-(methylamino)-1-oxobutan-2-yl)-7-methyl-5,6,7,8-tetrahydroimidazo[1,5-a]pyrazine-1-carboxamide]	+	
CNC(=O)[C@@H](NC(=O)c1nc(-c2cccc3cccnc23)n2c1CN(C)CCC2)C(C)(C)C [Compound 444]	+	
CC(C)CN1CCn2c(-c3ccccc3)nc(C(=O)NCC(C)(C)C)c2C1 [Compound 58, 7-isobutyl-N-neopentyl-3-phenyl-5,6,7,8-tetrahydroimidazo[1,5-a]pyrazine-1-carboxamide]		EC50: > 10000 nM
CNC(=O)[C@@H](NC(=O)c1nc(-c2cccc(C(F)(F)F)c2F)n2c1CN(C)CCC2)C(C)(C)C [Compound 364, (S)-N-(3,3-dimethyl-1-(methylamino)-1-oxobutan-2-yl)-3-(2-fluoro-3-(trifluoromethyl)phenyl)-8-methyl-6,7,8,9-tetrahydro-5H-imidazo[1,5-a][1,4]diazepine-1-carboxamide]		EC50: > 10000 nM
CNC(=O)[C@@H](NC(=O)c1nc(-c2ccccc2)n2c1CN(S(=O)(=O)c1ccc(F)cc1)CC2)C(C)(C)C [Compound 93, (S)-N-(3,3-dimethyl-1-(methylamino)-1-oxobutan-2-yl)-7-(4-fluorophenylsulfonyl)-3-phenyl-5,6,7,8-tetrahydroimidazo[1,5-a]pyrazine-1-carboxamide]	−	
CNC(=O)[C@@H](NC(=O)c1nc(C2=CCCCCC2)n2c1CN(C)CC2)C(C)(C)C [Compound 272, (S,E)-3-cycloheptenyl-N-(3,3-dimethyl-1-(methylamino)-1-oxobutan-2-yl)-7-methyl-5,6,7,8-tetrahydroimidazo[1,5-a]pyrazine-1-carboxamide]	+	
CNC(=O)[C@@H](NC(=O)c1nc(-c2cc(Cl)c(F)cc2F)n2c1CN(C)CCC2)C1CCCCC1 [Compound 542, (S)-3-(5-chloro-2,4-difluorophenyl)-N-(1-cyclohexyl-2-(methylamino)-2-oxoethyl)-8-mehtyl-6,7,8,9-tetrahydro-5H-imidazo[1,5-a][1,4]diazepine-1-carboxamide]	+	
CNC(=O)[C@H](CC(C)(C)C)NC(=O)c1nc(-c2ccc(Cl)cc2F)n2c1CN(C)CCC2 [Compound 544, (S)-3-(4-chloro-2-fluorophenyl)-N-(4,4-dimethyl-1-(methylamino)-1-oxopentan-2-yl)-8-methyl-6,7,8,9-tetrahydro-5H-imidazo[1,5-a][1,4]diazepine-1-carboxamide]	+	
CN1CCCn2c(-c3ccccc3)nc(C(=O)N[C@H](C(=O)O)C(C)(C)C)c2C1 [Compound 471, (S)-3,3-dimethyl-2-(8-methyl-3-phenyl-6,7,8,9-tetrahydro-5H-imidazo[1,5-a][1,4]diazepine-1-carboxamido)butanoic acid]		EC50: > 10000 nM
CNC(=O)[C@@H](NC(=O)c1nc(-c2ccc(C3CC(=O)NN3)cc2)n2c1CN(C)CCC2)C(C)(C)C (stereo partly drawn) [Compound 428, N-((S)-3,3-dimethyl-1-(methylamino)-1-oxobutan-2-yl)-8-methyl-3-(4-(5-oxopyrazolidin-3-yl)phenyl)-6,7,8,9-tetrahydro-5H-imidazo[1,5-a][1,4]diazepine-1-carboxamide]		EC50: > 10000 nM
CNC(=O)[C@@H](NC(=O)c1nc(-c2cc(C)ccc2Cl)n2c1CN(C)CCC2)C(C)(C)C [Compound 335, (S)-3-(2-chloro-5-methylphenyl)-N-(3,3-dimethyl-1-(methylamino)-1-oxobutan-2-yl)-8-methyl-6,7,8,9-tetrahydro-5H-imidazo[1,5-a][1,4]diazepine-1-carboxamide]	+	
CCN1CCn2c(-c3ccccc3)nc(C(=O)N[C@H](C)C3CCCCC3)c2C1 [Compound 164, (R)-N-(1-cyclohexylethyl)-7-ethyl-3-phenyl-5,6,7,8-tetrahydroimidazo[1,5-a]pyrazine-1-carboxamide]	+	
CC(C)CN1CCn2c(-c3ccccc3)nc(C(=O)N[C@@H](C)C(C)(C)C)c2C1 [Compound 53, (S)-N-(3,3-dimethylbutan-2-yl)-7-isobutyl-3-phenyl-5,6,7,8-tetrahydroimidazo[1,5-a]pyrazine-1-carboxamide]	+	
